The campaign covered roughly 410,000 compounds. About 7,200 (1.8%) were called active. The shares of active, inactive and inconclusive entries below differ from those in the screen. The call rests on the fitted dose curve; in most records, active means well fitted activation curve with a large enough effect; inconclusive means small, poorly fitted or top-dose-only effect, or another doubt; inactive means no such curve, though single readings can be large or run the other way. Potencies of inconclusive entries are doubtful fits and often do not repeat.
Assay: qHTS of TDP-43 Inhibitors; further: nearly all actives have a fitted effect of over 50% in size; on growth rescue (activation): % of control where 0% means no effect
Details: TDP-43 expressing yeast growth rescue, BacTiter-Glo, 24 h; growth rescue (activation): at 46.1 µM (top of the series) unless noted
Outline: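 Growth rescue of TDP-43-toxic yeast measured as ATP luminescence (BacTiter-Glo). Cells grown to mid-log in raffinose, induced in galactose at OD600=0.02, exposed to compound 24 hr at 30 deg C.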
Potency means the concentration at half of the fitted maximal effect; tags describe the fitted curve by direction and shape.

Potency, inconclusive:
Nc1[nH]c(C(=O)c2ccccc2)c(-c2ccccc2Br)c1C(=O)NCCc1c[nH]c2ccccc12 8.91 µM [activator, partial curve, poor fit], Cc1ccc(CNC(=O)Cn2cccc2C(=O)c2ccccc2)cc1 20 µM [activator, partial curve, poor fit], CSc1ccc(Cl)c(C(=O)OCC(=O)N2CCN(c3ccccc3)CC2)c1 35.5 µM [activator, single point], O=C(NC(=S)Nc1ccccc1Cl)c1csnn1 15.8 µM [activator, single point], Cc1cc(C)n(CCc2nc3c4ccccc4nc(SCc4ccc(F)cc4)n3n2)n1 2.51 µM [activator, full curve, poor fit], CCc1cccc(CC)c1NC(=S)NCCc1c(C)[nH]c2ccccc12 10 µM [activator, partial curve], Cc1cccc(-c2noc(CN(C)C(=O)c3ccc4c(c3)OCO4)n2)c1 14.1 µM [activator, partial curve], C=CCOC(=O)Nc1ccc(Cl)cc1NC(=O)OCC=C 20 µM [activator, partial curve], O=C(Nc1nc(-c2cc(F)ccc2F)cs1)c1ccccn1 3.16 µM [activator, partial curve], O=C(Cn1c(=O)oc2ccccc21)Nc1ccc(Cl)cc1Cl 11.2 µM [activator, partial curve], COc1ccccc1N1CCN(C(=O)c2cc3c(=O)n4cccc(C)c4nc3s2)CC1 35.5 µM [activator, single point], COc1ccc(O)c(-c2cc(-c3ccc(F)cc3)n[nH]2)c1 20 µM [activator, single point], O=C1CCN(Cc2ccccc2)C=C1c1ccc(C(F)(F)F)cc1 35.5 µM [activator, partial curve], COc1cccc(CNC(=O)CCCc2cn(C)c3ccccc23)c1 10 µM [activator, partial curve], S=c1[nH]nc(Cc2cccc3ccccc23)n1-c1ccccc1 35.5 µM [activator, partial curve, poor fit], O=C(/C=C/c1ccc(F)cc1)N1CCCN(C(=O)/C=C/c2ccc(F)cc2)CC1 17.8 µM [activator, single point], CCOc1ccccc1NC(C)C(=O)NC(=O)NC1CCCCC1 (centres undefined) 25.1 µM [activator, single point], NC(=O)c1ccccc1N/C=C/C(=O)c1ccc(F)cc1 35.5 µM [activator, single point], O=C(NCc1ccco1)c1ccc(-c2ccccc2Cl)o1 35.5 µM [activator, single point], O=C(/C=C/c1ccco1)NCc1ccc(F)cc1 35.5 µM [activator, single point], COc1ccc2[nH]c3c(c2c1)CCN1C(=O)C(CC(=O)NC/C=C(\C)CCC=C(C)C)C[C@H](C(=O)N(C(C)C)C(C)C)[C@@]31C (some centres undefined) 35.5 µM [activator, single point], Cc1ccccc1OCc1n[nH]c(=S)n1Cc1ccccc1 7.94 µM [activator, partial curve], COc1ccc(CCNc2nc3c(-c4cccc(C(F)(F)F)c4)nnn3c3ccccc23)cc1OC 6.31 µM [activator, single point], COc1ccc(NC(=O)c2cc(C3CCCCN3S(=O)(=O)Cc3ccccc3)on2)c(C)c1 (centres undefined) 10 µM [activator, partial curve], CC(Cc1cccs1)NC(=O)Nc1cccc(Cl)c1 (centres undefined) 12.6 µM [activator, single point], Cc1[nH][nH]c(=O)c1N=Nc1ccccc1Cl 12.6 µM [activator, partial curve], COC1(C)CC2C(CC1OC(=O)c1cc([N+](=O)[O-])cc([N+](=O)[O-])c1)C2(C)C (centres undefined) 35.5 µM [activator, single point], CCOC(=O)C1(C)CCN1C(=O)c1ccco1 (centres undefined) 0.562 µM [activator, full curve, poor fit], CC1CC(NC(=O)c2cc3c(=O)n4ccccc4nc3n2C)CC(C)(C)C1 (centres undefined) 22.4 µM [activator, single point], O=[N+]([O-])c1cc(Br)c(O)c(/C=N/Nc2nnnn2-c2cccc3ccccc23)c1 11.2 µM [activator, single point], COC(=O)C1C(c2ccccc2)C=CC(c2ccccc2)C1C(=O)O (centres undefined) 22.4 µM [activator, single point], Cc1cc(-n2c(C)cc(C(=O)COc3ccccc3[N+](=O)[O-])c2C)no1 11.2 µM [activator, partial curve], COc1ccc(C=O)cc1COc1ccc([N+](=O)[O-])c(C)c1 8.91 µM [activator, partial curve], O=C1c2ccccc2C(c2nnnn2Cc2ccccc2)N1Cc1cccc(F)c1 (centres undefined) 11.2 µM [activator, partial curve, poor fit], O=C(NCc1ncc(C(F)(F)F)cc1Cl)Nc1ccccc1 6.31 µM [activator, partial curve], CCOC(=O)c1c(NC(N)=O)sc(C)c1C 11.2 µM [activator, partial curve], O=C(COc1ccc(Cl)cc1)Nc1nc(-c2cccs2)cs1 1.78 µM [activator, partial curve], CCCCn1nnnc1C(c1ccccc1)N1CCN(c2ccc(C(F)(F)F)cn2)CC1 (centres undefined) 35.5 µM [activator, single point], COC(=O)c1c(C)n(-c2ccccc2)c2ccc(O)cc12 14.1 µM [activator, single point], Cc1ccc(NC(=O)N2CC3CCCN3c3ccccc32)cc1Cl (centres undefined) 6.31 µM [activator, single point], COc1ccc2nc(NNC(=O)c3cc(=O)c4ccccc4o3)sc2c1 35.5 µM [activator, single point], CCOc1ccc(-c2nc(CSCC(=O)N3CCN(C(=O)c4ccco4)CC3)c(C)o2)cc1 14.1 µM [activator, partial curve], Cc1cccc(NC(=O)c2ccc(Cl)c(S(=O)(=O)N3CCCCCC3)c2)n1 22.4 µM [activator, single point], Cc1cc(C(=O)Nc2c(C)cccc2C)n(-c2ccccc2)n1 0.562 µM [activator, full curve, poor fit]

Potency, inactive:
CCOc1ccc(C2C(C(=O)Nc3ccccc3)=C(C)Nc3nc(-c4ccccc4)nn32)cc1OC (centres undefined), O=C(Cn1c(-c2cccs2)cc2ccccc21)N1CCN(c2ccc(Cl)cc2)CC1, CN1/C(=C\C(=O)Nc2ccc(F)cc2)C(C)(C)c2ccccc21, CC(=O)c1ccc(S(=O)(=O)Nc2ccc(-c3cn4c(C)csc4n3)cc2)cc1, CCc1ccc(NC(=O)c2sc(-n3nc(C)c(CCC(C)C)c3C)nc2C)cc1, O=C(NCC(c1cccnc1)N1CCN(c2ccccc2F)CC1)C1CCCCC1 (centres undefined), Cc1cc(NC(=O)c2ccccc2F)ccc1-c1nc2ccccc2s1, COc1ccc(CN2C(=O)CN(S(C)(=O)=O)CC2(C)C(=O)Nc2ccc3c(c2)OCCO3)cc1OC (centres undefined), CCC(=O)N1CCc2cc(S(=O)(=O)NCCC(=O)Nc3ccc(CC)cc3)ccc21, COc1ccc(/C=C/CN2CCC(Oc3ccc(C(=O)N4CCCCC4)cc3)CC2)cc1, CC1CCN(c2nc(-c3ccc(C(C)(C)C)cc3)nc3ccccc23)CC1, Clc1ccc(-c2cc3ncc4c(n3n2)-c2ccccc2OC4)cc1, CCCCNC(=O)Cc1coc2ccc3ccccc3c12, COC(=O)c1ccc(C23CC4(C2)[C@H](CN(Cc2ccc(C(F)(F)F)cc2)[C@@H]4c2ccccc2)C3c2ccccc2)cc1 (some centres undefined), N#CC1C(=O)c2ccccc2C1c1ccccc1 (centres undefined), Cc1ccc(C)c(NC(=O)Cc2coc3cc(C)cc(C)c23)c1, O=C(OCc1cc(=O)n2nc(-c3cccs3)sc2n1)c1cccc(F)c1

Potency, active:
Cc1ccc(Nc2nc(-c3ccccc3)nc3ccccc23)cc1 12.6 µM, O=C(/C=C/c1cccs1)Nc1cccc(NC(=O)/C=C/c2cccs2)n1 7.94 µM, COc1ccc(OCc2ccc(C(=O)O)cc2)cc1 14.1 µM, CC(C)(C)NC(=O)CSc1nc2ccc(Nc3nc(N4CCOCC4)nc(N4CCOCC4)n3)cc2s1 11.2 µM, Cn1c(=O)c2c(nc(CN3CCc4ccccc4C3)n2Cc2cccc(Cl)c2)n(C)c1=O 20 µM, c1ccc(N2CCN(c3nc4ccccc4n4cnnc34)CC2)cc1 35.5 µM, O=C(c1noc2c1CCCCC2)N1CCN(c2cccc(Cl)c2)CC1 8.91 µM

Growth rescue (activation), inconclusive:
CC(NNC(=S)N1CCCCCC1)c1ccc2ccccc2n1 (centres undefined) -68.1% [activator]
